Data reported in publication PMC4336329 (PLoS ONE, 2015).
Hit rate of the full screen: of about 310,000 compounds, about 14,000 (4.5%) showed an effect of 50% or more. The effect is printed as a negative number. The list shows a part of the results.

Target: human ether-à-go-go-related gene (hERG) potassium channel (human, UniProt Q12809)
Assay: primary screen, population patch clamp on CHO cells stably expressing hERG
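Also: peak tail current of the secondary pulse compared with the same well before compound.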

Chain of human ether-à-go-go-related gene (hERG) potassium channel (Q12809 whole entry, looked up): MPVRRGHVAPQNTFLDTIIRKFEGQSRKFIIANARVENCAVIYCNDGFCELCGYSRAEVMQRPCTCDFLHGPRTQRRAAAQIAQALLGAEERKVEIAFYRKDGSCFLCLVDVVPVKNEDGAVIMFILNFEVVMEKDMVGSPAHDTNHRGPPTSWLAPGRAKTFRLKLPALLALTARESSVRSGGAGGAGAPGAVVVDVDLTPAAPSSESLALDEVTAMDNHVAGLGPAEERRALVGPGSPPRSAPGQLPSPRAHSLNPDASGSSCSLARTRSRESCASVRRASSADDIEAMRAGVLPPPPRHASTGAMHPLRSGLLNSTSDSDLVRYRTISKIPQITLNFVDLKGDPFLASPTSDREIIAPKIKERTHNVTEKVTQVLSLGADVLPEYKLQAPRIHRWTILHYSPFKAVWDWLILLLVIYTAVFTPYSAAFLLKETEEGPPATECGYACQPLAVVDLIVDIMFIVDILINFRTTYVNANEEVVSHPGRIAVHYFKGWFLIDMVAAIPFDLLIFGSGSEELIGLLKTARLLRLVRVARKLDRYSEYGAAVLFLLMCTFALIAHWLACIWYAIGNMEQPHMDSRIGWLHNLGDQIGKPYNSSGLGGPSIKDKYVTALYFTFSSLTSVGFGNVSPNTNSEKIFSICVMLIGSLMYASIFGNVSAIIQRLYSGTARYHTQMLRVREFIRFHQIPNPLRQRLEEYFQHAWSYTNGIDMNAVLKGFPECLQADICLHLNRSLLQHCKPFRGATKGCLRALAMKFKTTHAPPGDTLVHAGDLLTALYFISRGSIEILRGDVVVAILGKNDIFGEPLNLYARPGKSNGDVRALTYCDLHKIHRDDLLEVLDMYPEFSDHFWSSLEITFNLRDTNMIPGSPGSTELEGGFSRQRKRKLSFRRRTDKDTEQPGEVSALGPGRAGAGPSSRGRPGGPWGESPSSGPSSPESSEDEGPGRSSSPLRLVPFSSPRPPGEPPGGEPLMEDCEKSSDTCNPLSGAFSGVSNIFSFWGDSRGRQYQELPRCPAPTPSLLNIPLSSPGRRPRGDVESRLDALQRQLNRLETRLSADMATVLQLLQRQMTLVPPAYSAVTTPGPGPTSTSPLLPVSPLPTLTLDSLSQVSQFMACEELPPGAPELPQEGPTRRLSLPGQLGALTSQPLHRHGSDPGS

| SMILES | hERG current change (%, negative = inhibition) at 10uM [%] |
| --- | --- |
| Cc1ccccc1NC(=O)Cc1nc(COC(=O)COc2ccc(C(C)(C)C)cc2)cs1 | -5.64 |
| CCC(=O)OCCNc1cc(Sc2nccn2C)c2nonc2c1[N+](=O)[O-] | -12.4 |
| O=C(CN1C(=O)NC2(CCCC2)C1=O)N1CCN(S(=O)(=O)c2ccc(Cl)cc2)CC1 | 8.2 |
| COc1cccc(Oc2ccc(N)cc2)c1 | -1.18 |
| Cc1ccc2nc(SCC(=O)NC3CC3)[nH]c2c1 | 15.1 |
| Cc1c(Cl)c([N+](=O)[O-])nn1CCCC(=O)Nc1cccc(Cl)c1Cl | -10.4 |
| O=C(CN1C(=O)C2C3C=CC(C3)C2C1=O)N1CCc2ccccc2C1 (stereo not drawn) | 5.21 |
| Br.CCOc1ccc(-c2csc(NNC3=NCCCCC3)n2)cc1 | -21.7 |
| CCCCC(=O)N(CCOC)c1nnc(-c2cccnc2)s1 | 5.92 |
| Br.COc1ccc(Nc2nc(-c3sc(NC(C)=O)nc3C)cs2)cc1 | 3.32 |
| CC(C)=CC(=O)N1CCC(N2CCC(C(=O)N3CCOCC3)CC2)CC1 | 28.3 |
| N#Cc1ccccc1NC(=O)CSc1nnc(-c2ccccc2)n1-c1ccccc1 | 2.09 |
| Cc1nn(CCO)c(C)c1Oc1ccccc1O | 12.3 |
| Cc1ccsc1C1C(C#N)=C(N)Oc2n[nH]c(C)c21 (stereo not drawn) | 18.7 |
| CCC(C)N(C(=O)Cn1nnc(-c2ccc(F)cc2)n1)C1CCS(=O)(=O)C1 (stereo not drawn) | -3.45 |
| O=C(CN1C(=O)CSc2ccc(S(=O)(=O)N3CCCCC3)cc21)NCc1ccccc1Cl | -15.1 |
| Cc1cc(C)n2nc(CC(=O)NNC(=O)c3ccc(N(C)C)cc3)nc2n1 | 26.2 |
| COC(=O)c1c(NC(=O)Cc2ccccc2)sc2c1CCN(C(C)C)C2.Cl | -61.4 |
| Nc1c(C(=O)CSc2nc3ccccc3o2)c(=O)[nH]c(=O)n1C1CC1 | 5.38 |
| CN(C)C(=O)c1cn(CCC#N)nc1-c1ccc2ccccc2c1 | 19.2 |
| CCc1ccc(NC(=O)C(C)OC(=O)c2ccc(N3CCCC3)c([N+](=O)[O-])c2)cc1 (stereo not drawn) | -0.741 |
| O=C(Cn1cc(C(=O)c2cccs2)c2ccccc21)NCc1cccs1 | -14 |

| SMILES | hERG current change (%, negative = inhibition) at 10uM [%] |
| --- | --- |
| CCc1nnc(SCC(=O)Nc2nnc(C)s2)n1CC1CCCO1 (stereo not drawn) | 2.08 |
| CN(C)c1ccc(C2=NOC(CN3C(=O)c4ccccc4S3(=O)=O)C2)cc1 (stereo not drawn) | 11.8 |
| COc1ccccc1-c1cc(C(=O)NC(C)c2ccccc2)no1 (stereo not drawn) | 9.56 |
| CC1CCCN(C(=S)SCC(=O)O)C1 (stereo not drawn) | 19.3 |
| CCN1C(=O)[C@H]2[C@@H](c3ccc(C)cc3)N3C(=O)N(c4ccc(C)cc4)C(=O)[C@@]3(CC)[C@H]2C1=O | 9.31 |
| COc1ccc(-n2nc3ccccc3n2)cc1 | -17.5 |
| CC(C)CCOc1ccccc1C(N)=O | 14.4 |
| Nc1c(C(=O)NCc2ccco2)nnn1CC(=O)Nc1ccc2c(c1)OCO2 | -46 |
| O=C(NCc1ccncc1)Nc1cccc([N+](=O)[O-])c1 | -17.2 |
| O=C(Nc1ccccn1)Nc1ccccc1Cl | 23.2 |
| CCC(CC)C(=O)N=C1SC2CS(=O)(=O)CC2N1CCc1ccc(OC)c(OC)c1 (stereo not drawn) | -10.7 |
| CCCn1c(SCC(=O)Nc2cc(S(=O)(=O)N3CCOCC3)ccc2OC)n[nH]c1=O | 14.1 |
| C=CC[n+]1c(-c2ccc(Cl)cc2Cl)csc1Nc1ccc(NC(C)=O)cc1.[Cl-] | 8.41 |
| CC(C)(C)C(=O)N1N=C(c2ccc(NS(C)(=O)=O)cc2)CC1c1cccs1 (stereo not drawn) | -18.6 |
| FC(F)(F)c1cccc(N/N=C/c2ccccc2)c1 | -2.54 |
| Cc1cc(-c2nnc(SCC(=O)Nc3ccccc3)n2C)no1 | 4.56 |
| C=CCn1c(SCC(=O)Nc2c(C)nn(Cc3ccccc3)c2C)nnc1C(O)c1ccccc1 (stereo not drawn) | -1.47 |
| CSc1ccccc1NC(=O)COC(=O)Cc1cccs1 | -2.26 |
| Cc1ccccc1Cn1nnc(C(=O)Nc2cccc(C)c2C)c1N | -18.1 |
| Cc1cc(C(F)F)n2nc(C(=O)Nc3cc(C)on3)nc2n1 | -6.44 |
| CCOC(=O)c1sc(-c2ccc(Br)cc2)cc1N | -8.65 |
| CCC(=O)c1cn(CC(=O)Nc2ccc(C)cc2)c2ccccc12 | 8.39 |

| SMILES | hERG current change (%, negative = inhibition) at 10uM [%] |
| --- | --- |
| CSc1ccc(-c2nc(CN3CCCCC3c3cccnc3)c(C)o2)cc1 (stereo not drawn) | -19.8 |
| CCN(CC)S(=O)(=O)c1cccc(NC(=O)c2cncc(Br)c2)c1 | -69.9 |
| COc1cc(C2C(C(=O)c3ccco3)=C(O)C(=O)N2c2cc(C)on2)ccc1OCc1ccccc1 (stereo not drawn) | 19.8 |
| O=C(CNc1cc(S(=O)(=O)N2CCOCC2)ccc1NCC1CCCO1)Nc1ccccc1F (stereo not drawn) | -15.4 |
| CC(=O)c1cccc(NC(=O)/C(=C\c2cccnc2)NC(=O)c2ccc(C)cc2)c1 | -8.57 |
| O=c1c2cc(N3CCOCC3)ccc2[nH]c(=S)n1CCCN1CCCCCC1 | -17 |
| COc1cc2c(cc1OC)CN(C(=S)NC(=O)c1ccccc1)CC2 | 1.3 |
| COc1ccc(NC(=O)C2CCN(S(=O)(=O)c3ccc(N4CCCC4=O)cc3)CC2)cc1OC | 17.4 |
| COc1ccc(/C=N\NC(=O)CNC(=O)C2COc3ccccc3O2)cc1[N+](=O)[O-] (stereo not drawn) | -73.8 |
| CCc1ccccc1N(CC(=O)NC(C)(C)CC)C(=O)CCC(=O)Nc1nccs1 | -18.3 |
| CCOc1ccc(C2c3c(oc4ccccc4c3=O)C(=O)N2c2ccc(C)cn2)cc1OC (stereo not drawn) | -20.8 |
| O=C(NCC(c1ccco1)N1CCCC1)c1cccc(S(=O)(=O)Nc2ccc(Br)cc2)c1 (stereo not drawn) | -4.63 |
| CCN(CC(=O)Nc1sc2c(c1C#N)CCC(C)C2)CC(=O)NC1CCS(=O)(=O)C1 (stereo not drawn) | -20.9 |
| COc1c(C)cc(S(=O)(=O)NCCN2CCOCC2)c(C)c1C | -1.85 |
| COc1ccccc1NC(=O)C1CCCN(S(=O)(=O)c2c(C)noc2C)C1 (stereo not drawn) | -14.5 |
| CCCC1COC(Cn2cncn2)(c2ccc(C)cc2)O1 (stereo not drawn) | 4.61 |
| COc1ccc(N(C(C)C(=O)N/N=C(\C)C(C)(C)C)S(C)(=O)=O)cc1 (stereo not drawn) | 22.5 |
| OCCCNC(=S)Nc1ccc(Oc2ccccc2)cc1 | 1.06 |
| CCCN(CCC)S(=O)(=O)c1ccc(C(=O)Nc2ccc(S(=O)(=O)Nc3nnc(CC)s3)cc2)cc1 | 17.7 |
| CN(C/C=C/C#CC(C)(C)C)Cc1cccc2ccccc12.Cl | 11.3 |
| CCOC(=O)c1ccc2[nH]c3c(c2c1)CCCC3NC=O (stereo not drawn) | 11.5 |
| Cc1ccc(CCNC(=O)CN2C(=O)COc3ccc(S(=O)(=O)N4CCC(C)CC4)cc32)cc1 | 8.66 |

| SMILES | hERG current change (%, negative = inhibition) at 10uM [%] |
| --- | --- |
| Cn1c(=O)n(CCOc2ccc([N+](=O)[O-])cc2)c2ccccc21 | -65.3 |
| Cc1ccc(S(=O)(=O)n2ccc(OC(=O)c3cccs3)n2)cc1 | 12.2 |
| Cc1n[nH]c(C)c1Cc1ccc(C(=O)O)cc1 | 13.9 |
| Cc1cc(C)n2nc(SCC(=O)N(C)Cc3ccccc3)nc2n1 | -2.03 |
| Cc1cc(Cl)ccc1OCC(=O)Nc1ccc2oc(=O)ccc2c1 | 10.1 |
| COc1ccc(NC(=O)CS(=O)CC(=O)NCc2cccc(C(F)(F)F)c2)cc1 (stereo not drawn) | -0.402 |
| Cc1nc2cc(C(F)(F)F)ccc2n1CCNc1nc(-c2cc(Cl)c(N)c(Cl)c2)cs1 | 11.3 |
| Cc1c(CN2CCCCC2)c(O)n(CCO)c(=O)c1C#N | 13.4 |
| CC(=O)Nc1ccc(S(=O)(=O)NCc2ccc(C(=O)NCc3ccc(Cl)cc3)cc2)cc1 | -6.91 |
| Cc1ccc(S(=O)(=O)NCc2c(Cl)cccc2Oc2ccccc2)cc1 | 16 |
| C(=N\c1nc2ccccc2n1CCN1CCCCC1)/c1cccs1 | -15.9 |
| CCOc1ccc(S(=O)(=O)n2cnc3ccccc32)cc1 | 20.4 |
| O=C(O)CCCNC(=O)c1cncc(Br)c1 | 12.2 |
| Cc1ccc2oc(=O)c3cc(C(=O)Nc4cc(-c5cccc(F)c5)no4)sc3c2c1 | -0.501 |
| O=C1CC(NCC2CCCO2)C(=O)N1c1ccc(F)cc1 (stereo not drawn) | 6.92 |
| Cc1noc(/C=C/c2ccccn2)c1[N+](=O)[O-] | 13.3 |
| CCOC(=O)CNC(=O)CSc1nc(N)cc(N)n1 | 9.93 |
| CSc1nc2c(c(=O)[nH]c(=O)n2C)n1Cc1ccc(Cl)cc1 | 6.47 |
| Cc1ccc(/C=C2\C(=O)NC(=S)N(c3cccc(F)c3)C2=O)o1 | 2.73 |
| CN(CC(=O)Nc1ccccc1Cl)C(=O)C1CCN(C(=O)c2ccc(F)cc2)CC1 | -20.9 |
| O=C(COC(=O)CCCOc1ccccc1)NC1CCS(=O)(=O)C1 (stereo not drawn) | -3.01 |
